Assay results from the BET-seq Pho4 binding data (Le et al. 2018).
This is one part of the list. These are noisy estimates, calculated here from bound and input reads.

Target: T1, Pho4 (S. cerevisiae) (UniProt P07270)
T1 sequence: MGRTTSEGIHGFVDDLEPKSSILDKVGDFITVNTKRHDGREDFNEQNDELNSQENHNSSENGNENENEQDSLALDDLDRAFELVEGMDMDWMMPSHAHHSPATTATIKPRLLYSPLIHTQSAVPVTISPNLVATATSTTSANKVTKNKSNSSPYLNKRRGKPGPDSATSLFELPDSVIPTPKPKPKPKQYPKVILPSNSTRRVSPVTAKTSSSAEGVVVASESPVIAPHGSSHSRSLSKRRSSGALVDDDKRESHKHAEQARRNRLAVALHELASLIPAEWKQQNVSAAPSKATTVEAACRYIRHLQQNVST
Assay: relative binding free energy (BET-seq); higher = weaker binding
Conditions: reference: library average

Row | Sequence | relative binding free energy
1 | CATTTCACGTGAAATT | 0.52 kcal/mol
2 | CGGCACACGTGGGGTT | -0.1 kcal/mol
3 | ATTTTCACGTGAGCAG | 0.39 kcal/mol
4 | TGGGCCACGTGGGGAT | -0.11 kcal/mol
5 | GGGCTCACGTGGTTAA | 0.23 kcal/mol
6 | GGATCCACGTGGTAGT | 0.06 kcal/mol
7 | TCTGTCACGTGCGGTT | 0.17 kcal/mol
8 | GGGTCCACGTGGTCGT | 0 kcal/mol
9 | GTCGGCACGTGAATTT | 0.25 kcal/mol
10 | GGGGTCACGTGGTTAG | 0.23 kcal/mol
11 | TTATACACGTGTGGCG | 0.06 kcal/mol
12 | TGGTCCACGTGCGTTT | 0.14 kcal/mol
13 | TTTTTCACGTGAATAA | 0.22 kcal/mol
14 | TGTTTCACGTGGTGGG | 0.26 kcal/mol
15 | GGATACACGTGTCTGT | 0.09 kcal/mol
16 | TTAAACACGTGTGGTA | 0.02 kcal/mol
17 | CCGGTCACGTGCGGTT | 0.17 kcal/mol
18 | GATTGCACGTGTGTGC | 0.07 kcal/mol
19 | GATGTCACGTGTTATG | 0.25 kcal/mol
20 | ATTGCCACGTGTTGTA | -0.15 kcal/mol
21 | TGGATCACGTGGCAAT | 0.19 kcal/mol
22 | AGCGGCACGTGGGAGA | -0.15 kcal/mol
23 | AGTTTCACGTGTAAGG | 0.34 kcal/mol

Row | Sequence | relative binding free energy
24 | TCGTGCACGTGGGCTT | -0.2 kcal/mol
25 | GTTTCCACGTGGGGCG | 0.07 kcal/mol
26 | GAGTGCACGTGTGCGG | 0.08 kcal/mol
27 | TGCAGCACGTGTGTTG | -0.03 kcal/mol
28 | TTGTACACGTGTTGCA | -0.04 kcal/mol
29 | AGGGGCACGTGTTTTC | -0.11 kcal/mol
30 | GGATTCACGTGTAGGG | 0.28 kcal/mol
31 | GGTTACACGTGTGAGT | 0.19 kcal/mol
32 | ATCATCACGTGTGTGC | 0.27 kcal/mol
33 | GAGTTCACGTGCGGGG | 0.24 kcal/mol
34 | AGTGTCACGTGATGCT | 0.17 kcal/mol
35 | TTCTCCACGTGGGGGT | -0.02 kcal/mol
36 | ATTTGCACGTGGGAGA | -0.07 kcal/mol
37 | AAGGACACGTGGTATT | 0.08 kcal/mol
38 | GTCAACACGTGGTGGA | -0.04 kcal/mol
39 | TTGTTCACGTGGTGAG | 0.21 kcal/mol
40 | TTTGGCACGTGGATGT | -0.15 kcal/mol
41 | AACTTCACGTGGTTGT | 0.11 kcal/mol
42 | ACTGTCACGTGATGTG | 0.24 kcal/mol
43 | AGGGTCACGTGTCAAT | 0.15 kcal/mol
44 | GGGAGCACGTGGGTAG | -0.26 kcal/mol
45 | GTGAACACGTGGTGAT | -0.08 kcal/mol
46 | TCTTTCACGTGATTCT | 0.29 kcal/mol

Row | Sequence | relative binding free energy
47 | TCTTACACGTGTGATG | 0.18 kcal/mol
48 | GTTATCACGTGGCTAG | 0.06 kcal/mol
49 | TGTTACACGTGCGTAT | 0.01 kcal/mol
50 | TCAGTCACGTGTAGTT | 0.14 kcal/mol
51 | ATAGGCACGTGCAAGG | -0.08 kcal/mol
52 | TAGGGCACGTGGGAGA | -0.15 kcal/mol
53 | ATAGTCACGTGGTTGC | -0.01 kcal/mol
54 | TTCGTCACGTGTAATG | 0.26 kcal/mol
55 | GATATCACGTGAAGTT | 0.53 kcal/mol
56 | GCCGTCACGTGCGGGT | 0.13 kcal/mol
57 | AGGTTCACGTGTCGGT | 0.29 kcal/mol
58 | GGCTGCACGTGGAGAT | 0.14 kcal/mol
59 | GTTTACACGTGGGGGA | 0.09 kcal/mol
60 | TGCAGCACGTGTTCGT | -0.06 kcal/mol
61 | TAGATCACGTGGGGGC | 0 kcal/mol
62 | CGGCGCACGTGTATGG | -0.15 kcal/mol
63 | TGCAACACGTGATGGG | 0.15 kcal/mol
64 | GTAATCACGTGTGCGT | 0.26 kcal/mol
65 | GAAAGCACGTGGGCGG | -0.13 kcal/mol
66 | AACGGCACGTGGGGGG | -0.25 kcal/mol
67 | TGGAGCACGTGTCTTG | -0.16 kcal/mol
68 | TAGTCCACGTGGAAGG | 0.08 kcal/mol
69 | TGGAGCACGTGAAGTA | 0.21 kcal/mol

Row | Sequence | relative binding free energy
70 | TGTGTCACGTGTGCTC | 0.11 kcal/mol
71 | TGCTACACGTGGGGAG | -0.14 kcal/mol
72 | CGGTCCACGTGGCGGG | -0.08 kcal/mol
73 | TTTGGCACGTGGTAGA | -0.1 kcal/mol
74 | ACAGTCACGTGATAGG | 0.19 kcal/mol
75 | GGAGTCACGTGCATGG | 0.12 kcal/mol
76 | ATTTTCACGTGATAGC | 0.49 kcal/mol
77 | GATATCACGTGTGTTA | 0.2 kcal/mol
78 | TGCATCACGTGGTTGG | 0.15 kcal/mol
79 | AGTGTCACGTGGTCCA | -0.06 kcal/mol
80 | CAAGTCACGTGGGGAG | -0.02 kcal/mol
81 | TTAAGCACGTGTAGGC | -0.11 kcal/mol
82 | TTATGCACGTGTGCGG | -0.09 kcal/mol
83 | GTGGCCACGTGGTGGG | -0.1 kcal/mol
84 | TCATGCACGTGTCGTG | -0.09 kcal/mol
85 | GAGTGCACGTGATTAA | 0.24 kcal/mol
86 | CTATTCACGTGAGGTA | 0.23 kcal/mol
87 | TAGAACACGTGGGCGG | -0.21 kcal/mol
88 | TTAGTCACGTGCAGTA | 0.07 kcal/mol
89 | TATTGCACGTGTTCAT | -0.02 kcal/mol
90 | GTAGTCACGTGTCGTA | 0.27 kcal/mol
91 | TTGGACACGTGTTTCT | 0.11 kcal/mol
92 | TGAATCACGTGTGCTA | 0.28 kcal/mol

Row | Sequence | relative binding free energy
93 | GGTGGCACGTGAAGAG | 0.23 kcal/mol
94 | TCAAGCACGTGTGCTT | 0.02 kcal/mol
95 | TAGATCACGTGTAGGA | 0.18 kcal/mol
96 | AGTGCCACGTGAGATG | 0.12 kcal/mol
97 | GTTGTCACGTGCGATG | 0.12 kcal/mol
98 | TGCGTCACGTGCTGTA | 0.12 kcal/mol
99 | CGGGGCACGTGGTGGG | -0.17 kcal/mol
100 | TTTCGCACGTGTTGGG | -0.03 kcal/mol
101 | AGAAACACGTGTGGTT | 0.07 kcal/mol
102 | CGGATCACGTGAGTGC | 0.4 kcal/mol
103 | GTGTTCACGTGTTTGC | 0.2 kcal/mol
104 | TATGGCACGTGAGTCT | 0.03 kcal/mol
105 | GTGTGCACGTGCACGG | -0.18 kcal/mol
106 | GTTACCACGTGCGGGT | -0.08 kcal/mol
107 | ATAGTCACGTGTGAAT | 0.31 kcal/mol
108 | TTGTGCACGTGTCTGA | -0.01 kcal/mol
109 | TTGATCACGTGTATCT | 0.09 kcal/mol
110 | ACGTGCACGTGAGTGG | 0.15 kcal/mol
111 | TGGTTCACGTGAGAGG | 0.46 kcal/mol
112 | ATGTGCACGTGAGCAG | 0.08 kcal/mol
113 | AGAATCACGTGTGGTC | 0.29 kcal/mol
114 | GAAGGCACGTGGGGCT | -0.16 kcal/mol
115 | TGGGACACGTGACTGT | -0.04 kcal/mol
